According to the supplement of paper PMC12632987:
Over roughly 2,300 sequences, “median log2 fold change of GCK-ALFA target abundance (FLAG IP / Myc IP barcode read proportion)” has its median near 0.095; the lowest 2% begin near -0.47. Some of the results follow.

B1: LC3A_free_39_2190 (protein)
chain: SMEERERLRKEILELAAEEGEEAKELAEELIKLIGDEEERLRELLELLKELKEAGVDLKEALEEALELAKKLKEEGKSREEIFEEVKALLRDKINLIPID
B2: LC3A_3_1417 (protein)
chain: LEAERAAALAALAAAGHSPATLAAVDELVALLAERGAEEAARRALEAVLAAADISSELLLEVLEEAVRLLTEEGLSPEEVLERLEEELRIARNEQEIEEL
B3: LC3A_28_814 (protein)
chain: MSKEEIIEEIRRQAKEAEESDDTVLLNVTIDGTITPEEAKEIMEVVREESERLSKKRKVAVVVDLEEPISQEVIDLIADMAEEIEKELPNVSVVIALPES
B4: LC3A_free_39_2206 (protein)
chain: SMEEFEKAAEEILKIAKEEGEEALKAAKELLELLDGNLEAAKAVLEKLKEIKENGGDVLEALKAMLEVARKAKEEGLSPEELKELIKEEADVYVNLIPID
B5: LC3A_102_154 (protein)
chain: SAEEKIEEAFEEALRELEEAVEEEEHLSEEEKEEALRLARRALEATRENAITEEQHGFVDLVALDERDEALERLRELSPELARLTEEKAEELRKLIKELS
B6: LC3A_28_1089 (protein)
chain: SALEAQLAAALAEARAARDAGVEATLTITVGGDATEADIAKLKATLTEIAEIAKELPRLAVVINLTGPNAQAKATEISKHAEELEKEYPNLTVIIALDED
B7: LC3A_23_615 (protein)
chain: KYRLEVTIDIIVPKEEAEATVAALRATLEAVLAANADKIIEHELEVELEELEDGTTLITIELTVLIDGDKAEAEAIANEIVSAVDATAPDAVISAEVSKV
B8: LC3A_3_1566 (protein)
chain: LDKEVEEALKELKEAGASEEVLKKVKEAAELLKEKGYDKALKTFIEEMKKLKDAPDEILLDFAEEVIELIKNEDLSEEELSKKIKELARLAKLESEIIEL
B9: LC3A_28_699 (protein)
chain: SATEKEIERAKKIAEEAIEKGEDALIELTISPETTAEEVDKILATIEELAKKMSKVGKLYVVVDVESGVDQANIDKIADRLDELEAEIPNLTSIIALDEE
B10: LC3A_3_1568 (protein)
chain: MEEKIKKALERLREAGFSEEVIKAAEEAFRALAEKGLEESMEKVLEAFLKMKNAPEELLIDFARDIKEIVETSKGNKEEIEKKIEEEIKIYLSESEIIEL
B11: LC3A_free_46_2418 (protein)
chain: YRGIVEADLLGLTEEQVEEVIERVKEKAKRLEEEYGVKVEVEVEVEKNEDGTYFLRIKVTIEGEDREKVEKAANEVVDLLEKLADEYGAAMIISIEFEEL
B12: LC3A_16_522 (protein)
chain: QAELQQKLELLQAASAALDSDEAEFVALLIALDPARAAEIRAAAATPTARERLARLAAEIAAELLEQLKKEGTPEQQATAENIRTLFEVEADLHAVRAEE
B13: LC3A_102_134 (protein)
chain: EEEKVLKKALERARKEIEKHAEERPELTEEEKKKLIELSEKAIEAAAKSAITYKKHGFVDLEAESKMLEALEEIEKMDPEAAKITRKVIEELEKEIEKLY
B14: LC3A_132_268 (protein)
chain: SEELLKKALEELKELLDKIVELLKEGKDPSPQIKKLEEKAEEYAEKLSLEETEKLVRESIEYAEKLFKEKLDPNNKEAIRTLDIIEMLLEGVLIEKELRS
B15: LC3A_59_2017 (protein)
chain: MAEIEAVRERLRAAADDIDAFVAIVREALERFRDDPEKRRALIDAVMEVIGEELNADEDELEKLREEMLALIDSGKPWEEVIAEITDLVRELLLLIPIEE
B16: LC3A_141_378 (protein)
chain: KTETRTYELKDLPADEAEKKGIEKVKELFEKAKKEGAKTIKINITVEATVNGKTHKEEDTLEGPVENESIEGGAEVFLGLVALKYEGEKLNVTITATFTF
B17: LC3A_28_638 (protein)
chain: MTIEEEIERLLEEAKAAAEAGESKVLTLTVPGDSDEEDIELIIEKLEEVAEILKDLPSTSIIIDVDGDVPQEHIDLLADKADEIEEKYPNVTVIIALDEK
B18: LC3A_28_725 (protein)
chain: NELEESIEKALKKAKELAEKGKSDVIEITIPGNATQEDIEKVIKALEEIAEIVKDLESVSIVIDVEGGVKQEHIDKLADKAEEIEKKYPNVTVIIALDED
B19: LC3A_free_39_2239 (protein)
chain: SKEEIEALIKEVAKESGLPYEEVRAKVEEIKEVAGLSDEQILKIVKAILEAVKAGADAKEILEESLAIAKELKAQGKSPEEILEAILEHIEDMRNLVPLD

Molecular target: MAP1LC3A, Q9H492
Assay: median log2 fold change of GCK-ALFA target abundance (FLAG IP / Myc IP barcode read proportion) (log2 ratio); each designed protein is fused to an ALFA-tag nanobody in HEK293 cells to bring the named protein to FLAG-tagged glucokinase (GCK); Myc marks an untargeted standard; higher = target protein stabilised (more abundant)
Conditions: target protein: 3xFLAG-MCP-GCK-ALFA reporter; HEK293 landing pad (RPLP)
Procedure, shortened: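 HEK293 landing-pad cells received a recombined binder library fused to the ALFA nanobody and were induced with 2 μg mL^−1 doxycycline, then transfected with a plasmid encoding a FLAG-tagged target and a Myc-tagged standard. Lysates were collected after 48 h for anti-FLAG and anti-Myc immunoprecipitation, and the circular RNA barcodes were reverse transcribed, amplified and sequenced. Target abundance for each binder is the median log2 ratio of FLAG to Myc barcode read proportions. Barcodes had to reach a proportion of at least 10^−7 in both replicates, each binder needed at least 3 barcodes per replicate, a pseudocount of 10^−6 was applied, and the two replicates were pooled.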

Compared with B1, B2 is lower in “median log2 fold change” value: 0.42 for the first, 0.217 for the second.

Going from B3 to B4, the “median log2 fold change” value rises from -0.43 to 0.218.

Compared with B5, B6 is higher in “median log2 fold change” value: -0.0532 for the first, 0.274 for the second.

Compared with B7, B8 is higher in “median log2 fold change” value: -0.336 for the first, 0.0841 for the second.

First: B9
Second: B10
The “median log2 fold change” value of the first is lower: 0.0401 for the first, 0.521 for the second.

B11 and B12 are within 0.2 log units of each other in “median log2 fold change” value: 0.196 for the first, 0.354 for the second.

B13 and B14 are within 0.2 log units of each other in “median log2 fold change” value: 0.0657 for the first, 0.248 for the second.

Going from B15 to B16, the “median log2 fold change” value rises from 0.0767 to 0.304.

B17 and B18 are within 0.2 log units of each other in “median log2 fold change” value: 0.091 for the first, 0.164 for the second.

With B19 the “median log2 fold change” value was 0.294.
